Drawing on article PMC4012723, this text covers binding for five molecules.

Chains of the proteins cited; added tags and fusions are not shown.
UniProt Q9BXW9: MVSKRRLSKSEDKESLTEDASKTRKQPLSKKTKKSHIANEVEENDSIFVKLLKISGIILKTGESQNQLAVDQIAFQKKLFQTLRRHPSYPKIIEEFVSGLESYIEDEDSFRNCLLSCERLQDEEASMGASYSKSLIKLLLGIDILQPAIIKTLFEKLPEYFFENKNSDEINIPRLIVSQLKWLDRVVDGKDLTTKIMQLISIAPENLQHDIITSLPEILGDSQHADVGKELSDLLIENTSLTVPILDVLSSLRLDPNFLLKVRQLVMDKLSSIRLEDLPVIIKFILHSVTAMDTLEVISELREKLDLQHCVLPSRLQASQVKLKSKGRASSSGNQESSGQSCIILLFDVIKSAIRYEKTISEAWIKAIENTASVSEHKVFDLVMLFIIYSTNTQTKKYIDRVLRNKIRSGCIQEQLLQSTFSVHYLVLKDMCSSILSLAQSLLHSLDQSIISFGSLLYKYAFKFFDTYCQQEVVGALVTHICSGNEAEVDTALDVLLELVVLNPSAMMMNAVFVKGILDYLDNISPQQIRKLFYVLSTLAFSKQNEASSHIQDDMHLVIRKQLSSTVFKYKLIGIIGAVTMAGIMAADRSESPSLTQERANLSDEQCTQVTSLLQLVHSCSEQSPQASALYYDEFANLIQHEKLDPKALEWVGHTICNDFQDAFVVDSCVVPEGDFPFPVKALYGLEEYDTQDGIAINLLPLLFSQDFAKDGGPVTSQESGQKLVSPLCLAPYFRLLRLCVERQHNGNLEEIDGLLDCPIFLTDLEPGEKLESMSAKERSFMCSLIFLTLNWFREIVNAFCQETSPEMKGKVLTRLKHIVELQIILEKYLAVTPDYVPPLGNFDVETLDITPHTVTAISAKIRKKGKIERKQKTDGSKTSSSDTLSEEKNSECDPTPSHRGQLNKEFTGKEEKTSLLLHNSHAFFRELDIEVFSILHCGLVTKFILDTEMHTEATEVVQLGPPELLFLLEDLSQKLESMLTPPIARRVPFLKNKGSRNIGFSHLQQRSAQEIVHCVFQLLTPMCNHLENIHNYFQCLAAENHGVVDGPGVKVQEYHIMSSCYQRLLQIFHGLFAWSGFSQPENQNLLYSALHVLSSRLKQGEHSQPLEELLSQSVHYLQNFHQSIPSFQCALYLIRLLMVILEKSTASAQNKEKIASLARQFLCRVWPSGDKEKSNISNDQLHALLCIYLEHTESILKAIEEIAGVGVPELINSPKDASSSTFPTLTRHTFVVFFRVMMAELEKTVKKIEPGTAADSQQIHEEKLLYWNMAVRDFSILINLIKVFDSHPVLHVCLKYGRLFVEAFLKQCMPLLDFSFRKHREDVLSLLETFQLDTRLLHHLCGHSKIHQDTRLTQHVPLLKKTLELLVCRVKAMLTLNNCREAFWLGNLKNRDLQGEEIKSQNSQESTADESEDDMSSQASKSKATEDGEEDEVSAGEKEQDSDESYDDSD

Results are given in words; binding and its absence hold for the method and conditions named. For part of these data: In cells and extracts the contact can be indirect. Some entries that bind do so weakly or less than the wild type. For part of these data: Sequences can lack the tags named with a protein.

For experiment [1], the target named is T1, GFP-fused MCM3 (human) (UniProt P25205).
T1 sequence: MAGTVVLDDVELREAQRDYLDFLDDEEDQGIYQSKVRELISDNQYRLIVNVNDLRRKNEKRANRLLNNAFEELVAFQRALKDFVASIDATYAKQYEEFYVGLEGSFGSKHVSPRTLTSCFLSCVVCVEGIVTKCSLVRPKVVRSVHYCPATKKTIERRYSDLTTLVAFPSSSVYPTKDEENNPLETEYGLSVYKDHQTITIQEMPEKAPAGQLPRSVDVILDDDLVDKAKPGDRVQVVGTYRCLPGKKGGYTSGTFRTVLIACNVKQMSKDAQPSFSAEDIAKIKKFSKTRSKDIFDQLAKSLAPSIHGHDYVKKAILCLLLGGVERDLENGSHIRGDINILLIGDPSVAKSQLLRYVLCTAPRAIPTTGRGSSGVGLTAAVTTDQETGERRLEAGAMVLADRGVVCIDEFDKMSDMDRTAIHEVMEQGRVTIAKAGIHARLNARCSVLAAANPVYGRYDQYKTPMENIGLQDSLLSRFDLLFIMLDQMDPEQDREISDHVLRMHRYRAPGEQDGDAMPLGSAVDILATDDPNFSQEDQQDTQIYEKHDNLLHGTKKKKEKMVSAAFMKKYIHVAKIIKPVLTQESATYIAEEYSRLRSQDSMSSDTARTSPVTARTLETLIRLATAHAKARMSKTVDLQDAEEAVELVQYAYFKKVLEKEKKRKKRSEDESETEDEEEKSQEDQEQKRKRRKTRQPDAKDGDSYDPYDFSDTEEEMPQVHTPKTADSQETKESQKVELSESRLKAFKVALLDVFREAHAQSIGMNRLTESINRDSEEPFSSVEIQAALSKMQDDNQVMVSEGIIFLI
Put plainly: co-IP; CRL-1790 cells transiently co-transfected with GFP-MCM3 and Flag-wtFANCD2 or Flag-mtFANCD2 K561R, lysates 48 hr post-transfection; reverse IP-WB with Flag and GFP antibodies; washes in 20mM HEPES pH 7.9, 350mM NaCl, 0.1% NP-40.

In experiment [2] the target is T2, GFP-MCM3 Δ477-480aa (human) (UniProt P25205).
T2 sequence: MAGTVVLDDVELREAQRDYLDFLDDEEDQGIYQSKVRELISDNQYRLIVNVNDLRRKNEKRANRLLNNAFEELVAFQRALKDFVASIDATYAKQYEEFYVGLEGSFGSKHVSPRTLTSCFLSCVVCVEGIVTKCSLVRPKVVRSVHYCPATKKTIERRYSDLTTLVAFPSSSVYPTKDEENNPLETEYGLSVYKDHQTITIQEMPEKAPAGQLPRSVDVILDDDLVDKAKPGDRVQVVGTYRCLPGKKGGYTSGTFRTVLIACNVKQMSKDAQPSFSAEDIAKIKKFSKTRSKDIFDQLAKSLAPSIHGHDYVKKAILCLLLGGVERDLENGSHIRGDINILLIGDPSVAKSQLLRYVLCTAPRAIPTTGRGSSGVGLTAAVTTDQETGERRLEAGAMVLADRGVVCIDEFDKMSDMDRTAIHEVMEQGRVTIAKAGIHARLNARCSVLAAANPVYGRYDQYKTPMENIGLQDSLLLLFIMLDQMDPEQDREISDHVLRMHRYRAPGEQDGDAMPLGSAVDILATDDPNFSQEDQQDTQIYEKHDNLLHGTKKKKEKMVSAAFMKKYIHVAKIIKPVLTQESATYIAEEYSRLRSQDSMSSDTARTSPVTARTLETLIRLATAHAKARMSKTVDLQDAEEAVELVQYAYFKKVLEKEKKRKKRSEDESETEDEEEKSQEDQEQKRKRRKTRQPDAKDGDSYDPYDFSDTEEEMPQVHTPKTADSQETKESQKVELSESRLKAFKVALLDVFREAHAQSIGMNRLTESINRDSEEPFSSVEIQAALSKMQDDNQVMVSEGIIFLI
As to the kind of experiment: co-IP; CRL-1790 cells transfected with GFP-MCM3 or its deletion constructs; reverse IP-WB with GFP and FANCD2 antibodies against endogenous proteins.

The target of experiment [3] is T3, endogenous MCM3 (human (endogenous in CRL-1790)) (UniProt P25205).
T3 sequence: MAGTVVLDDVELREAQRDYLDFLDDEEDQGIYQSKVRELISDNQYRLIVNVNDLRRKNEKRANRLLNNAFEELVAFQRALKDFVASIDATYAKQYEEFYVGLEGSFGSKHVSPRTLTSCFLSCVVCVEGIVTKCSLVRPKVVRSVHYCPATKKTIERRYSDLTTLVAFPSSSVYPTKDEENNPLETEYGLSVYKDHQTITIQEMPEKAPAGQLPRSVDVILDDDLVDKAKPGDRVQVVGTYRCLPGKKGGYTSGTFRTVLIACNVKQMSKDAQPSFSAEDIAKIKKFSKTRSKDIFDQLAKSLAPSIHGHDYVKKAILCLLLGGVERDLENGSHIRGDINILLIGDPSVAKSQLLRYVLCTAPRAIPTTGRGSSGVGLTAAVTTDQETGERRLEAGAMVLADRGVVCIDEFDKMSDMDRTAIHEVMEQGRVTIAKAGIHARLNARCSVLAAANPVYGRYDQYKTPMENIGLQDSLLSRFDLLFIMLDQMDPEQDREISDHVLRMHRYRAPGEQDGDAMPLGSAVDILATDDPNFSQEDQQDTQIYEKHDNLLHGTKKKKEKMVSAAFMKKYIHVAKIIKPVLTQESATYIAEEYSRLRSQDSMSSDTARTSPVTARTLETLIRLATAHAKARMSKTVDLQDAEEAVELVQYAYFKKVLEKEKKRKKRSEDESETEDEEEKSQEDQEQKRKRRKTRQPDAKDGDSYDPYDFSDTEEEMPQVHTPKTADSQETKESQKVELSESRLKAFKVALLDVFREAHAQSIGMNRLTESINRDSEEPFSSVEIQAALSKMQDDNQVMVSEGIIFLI
Put plainly: SEC; nuclear extracts of normally growing CRL-1790 stable cells on a Superose 6B column, 20mM HEPES pH 7.9, 200mM NaCl, 0.1% NP-40, 5% glycerol; fractions analysed by SDS-PAGE and immunoblotting; co-peaking of endogenous (and exogenous mtMCM3) proteins.

Experiment [4] deals with T3, endogenous MCM3 (human (endogenous in CRL-1790)). Put plainly: co-IP; lysates of starvation-synchronized CRL-1790 cell pools enriched in G1 or S phase; reverse IP-WB of endogenous MCM3 and FANCD2.
For experiment [5] the target is unchanged. Put plainly: co-IP; pooled gel-filtration fractions #21 to #25 of CRL-1790 nuclear extract; reverse IP-WB between endogenous FANCD2 and MCM3, MCM2 or MCM7.
Experiment [6] addresses endogenous FANCD2 (human (endogenous in CRL-1790)) (UniProt Q9BXW9). As to the kind of experiment: co-IP; CRL-1790 cells transfected with GFP-MCM3 or its deletion constructs; reverse IP-WB with GFP and FANCD2 antibodies against endogenous proteins.
The target is the same in experiment [7]. Put plainly: co-IP; lysates of starvation-synchronized CRL-1790 cell pools enriched in G1 or S phase; reverse IP-WB of endogenous MCM3 and FANCD2.
The target is the same in experiment [8]. As to the kind of experiment: co-IP; pooled gel-filtration fractions #21 to #25 of CRL-1790 nuclear extract; reverse IP-WB between endogenous FANCD2 and MCM3, MCM2 or MCM7.
Experiment [9] deals with Flag-wild type (wt) FANCD2 (UniProt Q9BXW9). Put plainly: co-IP; CRL-1790 cells transiently co-transfected with GFP-MCM3 and Flag-wtFANCD2 or Flag-mtFANCD2 K561R, lysates 48 hr post-transfection; reverse IP-WB with Flag and GFP antibodies; washes in 20mM HEPES pH 7.9, 350mM NaCl, 0.1% NP-40.

For the molecule “Flag-wild type (wt) FANCD2 (from UniProt Q9BXW9 1-1451)”, in experiment [1], the binding result was “binds”.
As to “endogenous FANCD2 (from UniProt Q9BXW9 1-1451)”, the binding entry in experiment [2] is “no binding”; in experiment [3] it was “binds”; in experiment [4], “binds”; in experiment [5], “binds”.

B1: GFP-MCM3 Δ477-480aa (protein, UniProt P25205)
chain: MAGTVVLDDVELREAQRDYLDFLDDEEDQGIYQSKVRELISDNQYRLIVNVNDLRRKNEKRANRLLNNAFEELVAFQRALKDFVASIDATYAKQYEEFYVGLEGSFGSKHVSPRTLTSCFLSCVVCVEGIVTKCSLVRPKVVRSVHYCPATKKTIERRYSDLTTLVAFPSSSVYPTKDEENNPLETEYGLSVYKDHQTITIQEMPEKAPAGQLPRSVDVILDDDLVDKAKPGDRVQVVGTYRCLPGKKGGYTSGTFRTVLIACNVKQMSKDAQPSFSAEDIAKIKKFSKTRSKDIFDQLAKSLAPSIHGHDYVKKAILCLLLGGVERDLENGSHIRGDINILLIGDPSVAKSQLLRYVLCTAPRAIPTTGRGSSGVGLTAAVTTDQETGERRLEAGAMVLADRGVVCIDEFDKMSDMDRTAIHEVMEQGRVTIAKAGIHARLNARCSVLAAANPVYGRYDQYKTPMENIGLQDSLLLLFIMLDQMDPEQDREISDHVLRMHRYRAPGEQDGDAMPLGSAVDILATDDPNFSQEDQQDTQIYEKHDNLLHGTKKKKEKMVSAAFMKKYIHVAKIIKPVLTQESATYIAEEYSRLRSQDSMSSDTARTSPVTARTLETLIRLATAHAKARMSKTVDLQDAEEAVELVQYAYFKKVLEKEKKRKKRSEDESETEDEEEKSQEDQEQKRKRRKTRQPDAKDGDSYDPYDFSDTEEEMPQVHTPKTADSQETKESQKVELSESRLKAFKVALLDVFREAHAQSIGMNRLTESINRDSEEPFSSVEIQAALSKMQDDNQVMVSEGIIFLI
On to B1, for which the binding entry in experiment [6] is “no binding”.

B2: endogenous MCM3 (protein, UniProt P25205 1-808)
chain: MAGTVVLDDVELREAQRDYLDFLDDEEDQGIYQSKVRELISDNQYRLIVNVNDLRRKNEKRANRLLNNAFEELVAFQRALKDFVASIDATYAKQYEEFYVGLEGSFGSKHVSPRTLTSCFLSCVVCVEGIVTKCSLVRPKVVRSVHYCPATKKTIERRYSDLTTLVAFPSSSVYPTKDEENNPLETEYGLSVYKDHQTITIQEMPEKAPAGQLPRSVDVILDDDLVDKAKPGDRVQVVGTYRCLPGKKGGYTSGTFRTVLIACNVKQMSKDAQPSFSAEDIAKIKKFSKTRSKDIFDQLAKSLAPSIHGHDYVKKAILCLLLGGVERDLENGSHIRGDINILLIGDPSVAKSQLLRYVLCTAPRAIPTTGRGSSGVGLTAAVTTDQETGERRLEAGAMVLADRGVVCIDEFDKMSDMDRTAIHEVMEQGRVTIAKAGIHARLNARCSVLAAANPVYGRYDQYKTPMENIGLQDSLLSRFDLLFIMLDQMDPEQDREISDHVLRMHRYRAPGEQDGDAMPLGSAVDILATDDPNFSQEDQQDTQIYEKHDNLLHGTKKKKEKMVSAAFMKKYIHVAKIIKPVLTQESATYIAEEYSRLRSQDSMSSDTARTSPVTARTLETLIRLATAHAKARMSKTVDLQDAEEAVELVQYAYFKKVLEKEKKRKKRSEDESETEDEEEKSQEDQEQKRKRRKTRQPDAKDGDSYDPYDFSDTEEEMPQVHTPKTADSQETKESQKVELSESRLKAFKVALLDVFREAHAQSIGMNRLTESINRDSEEPFSSVEIQAALSKMQDDNQVMVSEGIIFLI
With B2, the binding result in experiment [7] and in experiment [8] was “binds” throughout.

B3: GFP-fused MCM3 (protein, UniProt P25205 1-808)
chain: MAGTVVLDDVELREAQRDYLDFLDDEEDQGIYQSKVRELISDNQYRLIVNVNDLRRKNEKRANRLLNNAFEELVAFQRALKDFVASIDATYAKQYEEFYVGLEGSFGSKHVSPRTLTSCFLSCVVCVEGIVTKCSLVRPKVVRSVHYCPATKKTIERRYSDLTTLVAFPSSSVYPTKDEENNPLETEYGLSVYKDHQTITIQEMPEKAPAGQLPRSVDVILDDDLVDKAKPGDRVQVVGTYRCLPGKKGGYTSGTFRTVLIACNVKQMSKDAQPSFSAEDIAKIKKFSKTRSKDIFDQLAKSLAPSIHGHDYVKKAILCLLLGGVERDLENGSHIRGDINILLIGDPSVAKSQLLRYVLCTAPRAIPTTGRGSSGVGLTAAVTTDQETGERRLEAGAMVLADRGVVCIDEFDKMSDMDRTAIHEVMEQGRVTIAKAGIHARLNARCSVLAAANPVYGRYDQYKTPMENIGLQDSLLSRFDLLFIMLDQMDPEQDREISDHVLRMHRYRAPGEQDGDAMPLGSAVDILATDDPNFSQEDQQDTQIYEKHDNLLHGTKKKKEKMVSAAFMKKYIHVAKIIKPVLTQESATYIAEEYSRLRSQDSMSSDTARTSPVTARTLETLIRLATAHAKARMSKTVDLQDAEEAVELVQYAYFKKVLEKEKKRKKRSEDESETEDEEEKSQEDQEQKRKRRKTRQPDAKDGDSYDPYDFSDTEEEMPQVHTPKTADSQETKESQKVELSESRLKAFKVALLDVFREAHAQSIGMNRLTESINRDSEEPFSSVEIQAALSKMQDDNQVMVSEGIIFLI
Turning to B3, in [9], the binding entry is “binds”.
